Data on 50 molecules can be found in paper PMC6919601, “Identification of Plasmodium dipeptidyl aminopeptidase allosteric inhibitors by high throughput screening” (PLoS ONE, 2019).

Out of some 110,000 compounds screened, about 230 (0.21%) showed an effect of 50% or more. Some of the results follow.
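Note: 30 min substrate incubation versus DMSO and 10 µM JCP410 controls.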

Chain of DPAP1 (Q8IIJ9 whole entry, looked up): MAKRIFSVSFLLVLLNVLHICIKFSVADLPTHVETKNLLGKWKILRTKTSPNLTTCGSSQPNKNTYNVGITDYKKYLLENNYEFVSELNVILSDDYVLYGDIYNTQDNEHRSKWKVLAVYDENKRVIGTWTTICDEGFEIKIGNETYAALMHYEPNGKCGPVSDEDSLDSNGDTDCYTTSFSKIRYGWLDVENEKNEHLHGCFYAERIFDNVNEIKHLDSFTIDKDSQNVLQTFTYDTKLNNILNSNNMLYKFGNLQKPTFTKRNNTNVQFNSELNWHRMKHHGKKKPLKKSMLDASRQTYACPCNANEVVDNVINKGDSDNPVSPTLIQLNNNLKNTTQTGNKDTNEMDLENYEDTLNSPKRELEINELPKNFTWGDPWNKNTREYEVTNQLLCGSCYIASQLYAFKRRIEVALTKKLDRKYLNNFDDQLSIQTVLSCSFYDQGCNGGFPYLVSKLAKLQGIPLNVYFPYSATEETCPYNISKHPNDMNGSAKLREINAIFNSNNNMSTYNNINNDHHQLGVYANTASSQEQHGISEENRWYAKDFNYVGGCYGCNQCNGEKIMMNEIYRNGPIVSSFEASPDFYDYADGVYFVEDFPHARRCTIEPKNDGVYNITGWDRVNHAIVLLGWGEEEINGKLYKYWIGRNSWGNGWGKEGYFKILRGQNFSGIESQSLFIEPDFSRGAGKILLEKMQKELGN

The test concerns the target DPAP1 (Plasmodium falciparum, UniProt Q8IIJ9). The test is described as follows: primary screen, percent inhibition; read by cleavage of a fluorogenic dipeptide substrate; higher = more effect of the substance. On the set-up: species or system P. falciparum D10 trophozoite lysates; single well.
Take `NC(=O)C(=O)Nc1cccc(Cl)c1Cl`: the “% Inhibition @ 10 uM” value is -5.42%.
In the case of `CCN1C(=O)/C(=C2/CCCN2C)c2ccccc21`, the “% Inhibition @ 10 uM” value is given as -3.16%.
With `CCCN(CCC)S(=O)(=O)c1ccc(-c2ccc(O)nn2)s1`, the “% Inhibition @ 10 uM” value was 5.07%.
For the molecule `CN(C)CP(=O)(O)CCN1CCCC1=O`, the “% Inhibition @ 10 uM” value came out at 3.25%.
Turning to `COc1ccc(C)cc1N(CC(=O)N1CCOCC1)S(=O)(=O)c1ccc(C)cc1`, the “% Inhibition @ 10 uM” value was determined as 1.15%.
With `CNc1nc(Nc2ccccc2C#N)nc(N(C)C)n1`, the “% Inhibition @ 10 uM” value is recorded as -2.77%.
As to `Oc1c(C(c2ccc(C(F)(F)F)cc2)N2CCCC2)ccc2cccnc12` (centres unmarked), the “% Inhibition @ 10 uM” value is listed as -1.52%.
The result for `COCCNC(=O)/C(C#N)=C/c1c(Oc2cccc(C)c2C)nc2ccccn2c1=O` reads 2%; that for `CCc1ccc(/C=C2/SC(=S)NC2=O)cc1`, -0.0494%; that for `CCN(CC)CCCNC(=O)Cn1c2ccccc2c2cnnc(O)c21`, -3.79%.
For `COc1cc(-c2cc(C(=O)O)c3c(-c4ccc(C)cc4)[nH]nc3n2)cc(OC)c1O`, the “% Inhibition @ 10 uM” value was -10%.
Consider `O=C1NC(c2ccccc2)=NC1(Nc1ccc(Cl)cn1)C(F)(F)F` (centres unmarked), for which the “% Inhibition @ 10 uM” value is reported as -3.33%.
Consider `CCC1CCCCN1C(=O)Cn1c(=O)n(Cc2ccccc2)c(=O)c2c3c(sc21)CCC3` (centres unmarked), for which the “% Inhibition @ 10 uM” value is listed as -5.88%.
The result for `O=C(NCCc1ccccc1)c1ccc(Cl)cc1` reads 0.035%; that for `CC(C)c1ccc(-n2cccc2/C=C2/C(=N)N3C=CSC3=NC2=O)cc1`, 0.208%.
For `COc1ccc(-c2csc3ncn(Cc4ccccc4F)c(=O)c23)cc1`, the “% Inhibition @ 10 uM” value was -3.67%.
As for `COc1ccc(C(=O)CC2(O)C(=O)Nc3ccccc32)cc1` (centres unmarked), the “% Inhibition @ 10 uM” value is on record as 3.06%.
The result for `CSc1oc(-c2ccccc2)nc1S(=O)(=O)c1ccc(C)cc1` reads -1.29%; that for `N#C/C(=C\C=C\c1ccccc1)c1nc(O)c2ccccc2n1`, 2.26%; that for `COc1cc(OC)cc(-c2cc3nc(C)c(CCC(=O)NC(C)c4cccs4)c(C)n3n2)c1` (centres unmarked), 2.93%.
The result for `Brc1ccc2c(c1)[C@H]1OCC[C@H]1[C@@H](c1cccs1)N2` reads -0.737%.
For the molecule `COc1ccc(OC)c(N2C(=O)C3C(c4ccc(C)cc4)OC4(C(=O)c5ccccc5C4=O)C3C2=O)c1` (centres unmarked), the “% Inhibition @ 10 uM” value is reported as -7.89%.
In the case of `CN1CCN(CC(O)COCC2COc3ccccc3O2)CC1` (centres unmarked), the “% Inhibition @ 10 uM” value is reported as -4.21%.
Turning to `Cc1ccc(C(=O)Nc2nc(-c3nnn(-c4cc(F)ccc4F)c3C)ns2)cc1`, the “% Inhibition @ 10 uM” value was -1.04%.
As for `CC(=O)c1c(C)oc2ccc(N(C(=O)c3ccncc3)S(=O)(=O)c3cc(C)c(C)cc3C)cc12`, the “% Inhibition @ 10 uM” value turned out to be 5.37%.
As for `CCN(C(=O)c1ccc(NC(C)=O)cc1)c1ccccc1`, the “% Inhibition @ 10 uM” value is recorded as 4.04%.
On to `O=[N+]([O-])c1cccc(CN2CCCCCC2)c1`, for which the “% Inhibition @ 10 uM” value is -1.77%.
On to `CCOC(=O)c1cnc2ccc(Cl)cc2c1O`, for which the “% Inhibition @ 10 uM” value was found to be 3.76%.
Turning to `CCCN(CCC)CCCNC(=O)c1c(C)nn(-c2ccc(F)cc2)c1-n1cccc1`, the “% Inhibition @ 10 uM” value was -0.231%.
For `Cc1ccc(NCC(=O)c2ccc(-c3ccccc3)cc2)cc1`, the “% Inhibition @ 10 uM” value is given as -0.294%.
Regarding `Cc1ccc(C(=O)n2nc(-c3ccccc3)nc2NCc2ccco2)cc1`, the “% Inhibition @ 10 uM” value is reported as 8.5%.
On to `CCCCN(CC)CCCNC(=O)c1ccc2nc(N3CCCCC3)sc2c1`, for which the “% Inhibition @ 10 uM” value is -3.34%.
Take `COc1cccc2sc(N(CCN(C)C)C(=O)CCS(=O)(=O)c3ccccc3)nc12`: the “% Inhibition @ 10 uM” value is recorded as -5.59%.
For the molecule `Brc1ccc(OCCCCn2ccnc2)cc1`, the “% Inhibition @ 10 uM” value is on record as 2.22%.
As to `Cc1nn(Cc2cccc(C(=O)NC34CC5CC(CC(C5)C3)C4)c2)c(C)c1Br`, the “% Inhibition @ 10 uM” value is -3.13%.
The result for `Cc1cccn2c(=O)c3cc(S(=O)(=O)c4ccc(Cl)cc4)c(=N)n(C4CCCCC4)c3nc12` reads -1.44%; that for `C=CCNC(=O)Nc1cnc2ccc(F)cc2c1O`, 3.84%.
As to `Cc1c(C#N)c2ccccc2n1CC(=O)N1CCc2ccccc2C1`, the “% Inhibition @ 10 uM” value stood at 2.35%.
Consider `Fc1cccc(CN2CCN(Cc3cccnc3)CC2)c1`, for which the “% Inhibition @ 10 uM” value came to 17.9%.
Turning to `O=C(O)c1cc2nc3c(c(C(F)(F)F)n2n1)CCc1ccccc1-3`, the “% Inhibition @ 10 uM” value is given as 2.38%.
On to `COc1ccc(CC(=O)N2N=C(C)CC2(O)C(F)(F)F)cc1` (centres unmarked), for which the “% Inhibition @ 10 uM” value is recorded as -6.59%.
With `O=C(NC1CCCC1)c1ccc(COc2cc(Cl)ccc2Cl)o1`, the “% Inhibition @ 10 uM” value is given as -5%.
In the case of `Cc1nc2c(cnn2-c2ccccc2)c(=O)n1-c1ccccc1`, the “% Inhibition @ 10 uM” value stood at 0.177%.
The result for `O=C(c1ccc(Cn2c(=O)[nH]c3ccsc3c2=O)cc1)N1CCCCC1` reads -6.5%.
As for `N#Cc1c(N)nc(SCC(=O)c2ccc(Cl)c(Cl)c2)c(C#N)c1-c1ccc(O)cc1`, the “% Inhibition @ 10 uM” value was 14.1%.
With `Cc1nnc(NCC2CCCCC2)c2c1nnn2Cc1ccc(F)cc1`, the “% Inhibition @ 10 uM” value is listed as 3.27%.
`O=C(CN(C1CCCCC1)S(=O)(=O)c1ccc(Cl)cc1)N1CCOCC1`: the “% Inhibition @ 10 uM” value is given as -0.553%.
Turning to `COc1cc(C(=O)N2CCN(C3C4CC5CC(C4)CC3C5)CC2)cc(OC)c1OC` (centres unmarked), the “% Inhibition @ 10 uM” value was -7.15%.
On to `O=C(NCc1ccccc1)C(=O)NC1CCCCC1`, for which the “% Inhibition @ 10 uM” value is 2.94%.
Consider `COc1ccc(OC)c(NC(=O)C2CCCCC2)c1`, for which the “% Inhibition @ 10 uM” value amounted to 0.231%.
